In PubChem BioAssay (NCI):
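Values below derive from 48-hour exposures of cells grown in 96-well plates, with endpoints linearly interpolated between the two concentrations bracketing the appropriate inhibition level. At the GI50, growth is halved. Definition used: TGI = concentration required for complete inhibition of growth.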

Test system: NCI-H322M lung
Assay: DTP human tumour cell line panel, 48 h

`CC(Nc1c(C#N)cnc2ccc(-c3cnc(N)nc3)cc12)c1ccccc1` (configuration not stated) was tested. Which GI50 did it give?
Its GI50 is 1.18 µM.

What about the TGI of the same compound?
The TGI was 7.52 µM.
